From article PMC4336329 (PLoS ONE, 2015)
Out of some 310,000 compounds screened, about 2,200 (0.71%) showed an effect of 50% or more. Effects have a minus sign here. This is one part of the list.

target: human ether-à-go-go-related gene (hERG) potassium channel (human, UniProt Q12809); assay: primary screen, population patch clamp on CHO cells stably expressing hERG
Sequence (Q12809 whole entry, looked up): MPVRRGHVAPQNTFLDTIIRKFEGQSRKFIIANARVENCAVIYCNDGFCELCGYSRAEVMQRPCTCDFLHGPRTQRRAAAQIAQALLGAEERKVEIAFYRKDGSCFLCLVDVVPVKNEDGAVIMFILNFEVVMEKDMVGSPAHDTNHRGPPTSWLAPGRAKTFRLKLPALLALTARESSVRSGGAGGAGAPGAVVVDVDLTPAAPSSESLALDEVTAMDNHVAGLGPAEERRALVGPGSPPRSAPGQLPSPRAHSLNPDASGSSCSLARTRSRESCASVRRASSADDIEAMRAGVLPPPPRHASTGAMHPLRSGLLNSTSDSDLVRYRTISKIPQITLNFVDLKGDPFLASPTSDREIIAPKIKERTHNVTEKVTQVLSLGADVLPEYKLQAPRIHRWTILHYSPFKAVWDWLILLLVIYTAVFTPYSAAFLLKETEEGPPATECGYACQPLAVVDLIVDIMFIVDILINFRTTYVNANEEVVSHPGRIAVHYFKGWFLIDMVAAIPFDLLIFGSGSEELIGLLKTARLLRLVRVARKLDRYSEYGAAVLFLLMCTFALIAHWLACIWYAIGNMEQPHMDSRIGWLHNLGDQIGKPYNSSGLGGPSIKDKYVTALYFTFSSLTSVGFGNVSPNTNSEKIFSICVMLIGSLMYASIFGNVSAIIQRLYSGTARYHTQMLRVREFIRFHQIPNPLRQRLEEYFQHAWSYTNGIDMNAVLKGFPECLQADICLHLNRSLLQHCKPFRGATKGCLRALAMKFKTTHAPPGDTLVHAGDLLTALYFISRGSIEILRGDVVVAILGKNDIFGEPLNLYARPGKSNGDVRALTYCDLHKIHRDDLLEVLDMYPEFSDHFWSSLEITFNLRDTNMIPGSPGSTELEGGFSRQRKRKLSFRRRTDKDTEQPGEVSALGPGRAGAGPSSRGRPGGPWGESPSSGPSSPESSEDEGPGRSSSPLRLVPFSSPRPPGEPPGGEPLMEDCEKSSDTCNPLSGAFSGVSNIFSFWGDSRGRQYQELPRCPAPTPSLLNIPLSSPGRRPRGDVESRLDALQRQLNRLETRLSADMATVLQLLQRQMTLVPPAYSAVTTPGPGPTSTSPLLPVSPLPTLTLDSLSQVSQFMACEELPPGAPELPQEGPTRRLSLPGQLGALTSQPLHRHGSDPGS

Row | Structure (SMILES) | hERG current change (%, negative = inhibition) at 1uM [%]
1 | O=C(CN(Cc1ccccc1)S(=O)(=O)c1ccc(Cl)cc1)NCC1CCCO1 (stereo not drawn) | 3.41
2 | CCc1nccn1CCC(=O)NC1CC(C)(C)Cc2c1cnn2-c1ccc(C)cc1 (stereo not drawn) | 2.16
3 | C=CCn1c(Cc2cccs2)nnc1SCC(=O)Nc1ccc(C(=O)OCC)cc1 | -8.22
4 | CSCCC(NS(=O)(=O)c1ccc(C)c(C(=O)O)c1)C(=O)O (stereo not drawn) | 10.4
5 | CCOC(=O)N1CCN(CC(=O)c2ccc3c(c2)CCN3C(C)=O)CC1 | 11.6
6 | CC(=O)c1cccc(N(C(=O)c2ccccn2)C(C(=O)NC2CCCCC2)c2cccs2)c1 (stereo not drawn) | 5.83
7 | CN(CC1CCN(CCc2cccc(C(F)(F)F)c2)CC1)C(=O)c1ccccc1 | -56.1
8 | Cc1ccc(OCCC(=O)NNC(=O)c2cc(C)oc2C)cc1 | 11.9
9 | O=[N+]([O-])c1ccc(N(c2ccccc2)c2ccccc2)cc1 | 8.63
10 | O=C(C1CCCN(CCCc2ccccc2)C1)N1CCCCC1 (stereo not drawn) | -5.07
11 | CC(SCc1ccccc1)C(=O)NN=C1CCN(C)CC1 (stereo not drawn) | 4.75
12 | NS(=O)(=O)c1ccc(CCNC(=O)c2cc([N+](=O)[O-])ccc2N2CCCCC2)cc1 | 1.53
13 | O=C(CC1SC(=Nc2ccccc2)N(CCc2ccccn2)C1=O)Nc1ccc(F)cc1 (stereo not drawn) | 4.98
14 | COc1cccc(CNC(=O)Cn2ncn3cccc3c2=O)c1OC | 8.95
15 | COc1ccc(-c2csc(N(CCCN(C)C)C(=O)c3ccc(Br)cc3)n2)cc1.O=C(O)C(=O)O | -1.62
16 | CN(C)C(=O)c1ccc(NC(=O)COC(=O)Cn2cc(C(F)(F)F)ccc2=O)cc1 | 2.08
17 | O=C(NC1C=CS(=O)(=O)C1)c1sc2ccccc2c1Cl (stereo not drawn) | -5.87
18 | Cc1c(Cl)c([N+](=O)[O-])nn1CC(=O)NC1CCCCC1 | 10.8
19 | Cn1c(=O)c2c(n3cnnc13)-c1ccccc1CC21CCCC1 | 6.55

Row | Structure (SMILES) | hERG current change (%, negative = inhibition) at 1uM [%]
20 | Cc1nn(C)cc1CN(C)C(=O)c1cc2nc(-c3ccco3)cc(C(F)(F)F)n2n1 | 5.78
21 | CCCCOc1ccc(N2C(=O)CC(NCCc3ccc(S(N)(=O)=O)cc3)C2=O)cc1 (stereo not drawn) | 0.222
22 | N=c1ncn(CC(O)CO)c2nc(N3CCOCC3)[nH]c12 (stereo not drawn) | 13.2
23 | CSCCC(NS(=O)(=O)c1ccc(Cl)cc1)C(=O)OCC(=O)NC1CCCCC1 (stereo not drawn) | 3.69
24 | CCc1cccc(CC)c1NC(=O)CN1CCN(S(=O)(=O)c2ccccc2)CC1 | 11.6
25 | OC(CNCc1ccccc1)(c1ccccc1)c1ccccc1 | 5.98
26 | O=C(Nc1ccc(S(=O)(=O)N2CCCCCC2)cc1)c1ccc(Br)o1 | 0.819
27 | Cc1ccc(NC(=O)c2ccn(C(=O)Nc3ccccc3)n2)c(C)c1 | 13.9
28 | O=C1C=C(O)C(n2cncn2)C(c2ccc3c(c2)OCO3)C1 (stereo not drawn) | 7.13
29 | COc1ccc(CNC(=O)c2coc(=O)c3ccccc23)cc1 | -5.65
30 | O=C(NCc1ccco1)c1cnc2n(c1=O)CCS2 | 0.498
31 | O=S(=O)(NCCCCCCNS(=O)(=O)c1c(F)cccc1F)c1ccc2c(c1)OCCO2 | 11.9
32 | CC(C)Oc1ccc(C(CC(=O)N(C)CCC#N)c2ccc(F)cc2)cc1 (stereo not drawn) | -1.64
33 | C/C(=N\NS(=O)(=O)c1ccc(Cl)c([N+](=O)[O-])c1)c1cc2ccccc2o1 | 11.4
34 | Cn1nccc1C(=O)Nc1sc2c(c1C(N)=O)CCCC2 | 1.14
35 | O=C(NCc1ccncc1)Nc1ccc(F)cc1 | 16.5
36 | CC(=C\c1ccccc1)/C=C1/SC(=S)N(CCC(=O)O)C1=O | 14
37 | CCc1ccccc1NC(=O)N[C@H](C(=O)O)C(C)CC (stereo partly drawn) | -4.75
38 | CCc1ccc2nc(N)sc2c1 | 12.2

Row | Structure (SMILES) | hERG current change (%, negative = inhibition) at 1uM [%]
39 | CN(C(=O)c1ccc(S(=O)(=O)NC2CCCC2)cc1)C1CCCCC1 | 3.65
40 | Cc1ccc(C(=O)Nc2cccc(S(=O)(=O)N(C)c3ccccc3)c2)o1 | -3.77
41 | CCOC(=O)CS(=O)(=O)c1nc(-c2ccccc2)cc(C(F)(F)F)n1 | 2.35
42 | C=CCOC(=O)C1=C(C)NC(SCC(=O)Nc2ccccc2)=C(C#N)C1c1ccco1 (stereo not drawn) | 11.6
43 | CS(=O)(=O)N(CC(=O)NC1CCCC1)Cc1ccc(Cl)cc1 | -2.87
44 | CC1=C/C(=N\Nc2ccccc2[N+](=O)[O-])CC(C)(C)C1 | 1.17
45 | CCn1c2ccc(C)cc2c2nnc(SCCN3CCOCC3)nc21 | 4.8
46 | Cn1nc2sc3ccccc3n2c(=O)c1=O | 14.5
47 | CSCCC(NC(=O)c1ccco1)C(=O)NCC(C)(C)N1CCOCC1 (stereo not drawn) | 7.73
48 | Cc1ccc(NC(=O)COC(=O)C2=COCCO2)c([N+](=O)[O-])c1 | 16.9
49 | COc1cccc(-n2c(Cn3nc(C(F)(F)F)cc3C)n[nH]c2=S)c1 | 9.46
50 | CC1(C)CC(NC(=O)c2cccc(S(=O)(=O)Nc3cccc(Cl)c3)c2)CC(C)(C)N1 | 9.92
51 | O/N=C/c1cc(Cl)ccc1OCc1cccc2ccccc12 | 1.24
52 | Fc1ccccc1CNc1ncnc2sccc12 | 12.6
53 | Cn1c(=O)n(Cc2ccc(F)cc2)c(=O)c2c1nc1n2CCCN1C1CCCCC1 | 11.5
54 | COC(=O)CCC(=O)Nc1cccc([N+](=O)[O-])c1 | 13.9
55 | O=C(CSc1ccccc1)NC1CCCCCC1 | -12.3
56 | Cc1cc(C(=O)Nc2ccc(N3CCCC3)c(Cl)c2)ccc1[N+](=O)[O-] | 6.29
57 | COc1cc(-c2nnc3sc(-c4ccco4)nn23)cc(OC)c1OC | 4.14
